The values that follow come from ChEMBL document CHEMBL4888484, “Replenishing the malaria drug discovery pipeline: Screening and hit evaluation of the MMV Hit Generation Library 1 (HGL1) against asexual blood stage Plasmodium falciparum ,using a nano luciferase reporter read-out” (2022).

The campaign covered roughly 150,000 compounds. About 540 (0.36%) showed an effect of 50% or more. This is one part of the list.

This assay concerns Plasmodium falciparum. The experiment in a line: Primary screen in NF54 nanoGlo assay, in single point, at 2uM, 72h; a lower Z score goes with more inhibition. The following applies: timepoint 72 hour. It counts as functional, Erythrocyte.
As usually defined, the % Inhibition is the drop in the measured response relative to a control, in per cent. For the compound `CC(C)(C)c1ccc2cc(C(=O)N3CCC[C@H]3c3ccncc3)[nH]c2c1`, the “% Inhibition” value is recorded as -14% and the Z score worked out at 1.91.

On to `O=C(O)[C@H]1CC12CCN(Cc1ccc(F)c(F)c1)CC2`, for which the “% Inhibition” value came out at 9% and the Z score is listed as -0.82.

On to `Nc1c(NC(=O)NC2CCCCC2)c(-c2ccc(Cl)cc2)nn1-c1ccc(C(F)(F)F)cc1`, for which the “% Inhibition” value is listed as -9% and the Z score is given as 0.82.

With `Cc1n[nH]cc1CN(C)C(=O)N[C@H]1CCCC[C@@H]1c1ccccc1`, the “% Inhibition” value is given as 0% and the Z score is on record as -0.07.

On to `N[C@H](C(=O)Nc1cncc(Br)c1O)C1CCOCC1`, for which the “% Inhibition” value turned out to be 10% and the Z score is -1.45.

`CN(C(=O)[C@@H]1COCC(=O)N1Cc1ccccc1)c1ccccc1`: the “% Inhibition” value is given as -1% and the Z score was determined as 0.2.

As for `CCN(C(=O)Cn1c(N2CCCCC2)nc(C)cc1=O)c1ccccc1`, the “% Inhibition” value is on record as 17% and the Z score is recorded as -1.87.

Turning to `COC(=O)CN(C)CCOc1ccccc1Cl`, the “% Inhibition” value is -4% and the Z score is 0.62.

On to `CC(C)Oc1cccc2c1c(NC(=O)[C@H]1[C@@H]3CNC[C@@H]31)nn2-c1cccc(F)c1`, for which the “% Inhibition” value is listed as -10% and the Z score stood at 0.98.

As to `Cn1nc(CNS(=O)(=O)c2ccc(Cl)s2)c2c1CCCC2`, the “% Inhibition” value was -7% and the Z score amounted to 1.48.

`COc1ccccc1CCN1Cc2cc(NC(=O)c3ccccc3OC)ccc2O[C@@H](C)C1=O`: the “% Inhibition” value is listed as -8% and the Z score is reported as 0.88.

Turning to `O=c1nc(-c2ccccc2)c(-c2ccccc2)nn1C[C@H](O)c1ccccc1Cl`, the “% Inhibition” value is recorded as 5% and the Z score is reported as -0.85.

Turning to `CN1CCN(c2ncccc2CNC(=O)N[C@H]2CC23CCCCC3)CC1`, the “% Inhibition” value is reported as -5% and the Z score was found to be 0.66.

As for `CN(C)c1noc([C@@H]2CCCN2C(=O)c2ccsc2)n1`, the “% Inhibition” value is -4% and the Z score was 0.42.

In the case of `O=S(=O)(c1ccc(-c2csc(Nc3ccc(Cl)cc3)n2)cc1)N1CCCC1`, the “% Inhibition” value turned out to be 2% and the Z score is reported as -0.31.

With `O=C(c1cncc(N2CCO[C@H](C3CC3)C2)n1)N1CCOCC1`, the “% Inhibition” value is -21% and the Z score came out at 2.05.

`C#CCN(Cc1ccco1)Cn1nc(N(C)C)sc1=S`: the “% Inhibition” value is -11% and the Z score is listed as 1.38.

Turning to `OCCCN1CCN(CC(F)(F)F)c2ccccc21`, the “% Inhibition” value is -7% and the Z score was found to be 0.95.

In the case of `CN(C)S(=O)(=O)N[C@H]1CCN(Cc2ccc(F)c(Cl)c2)C[C@@H]1O`, the “% Inhibition” value is reported as 0% and the Z score is given as -0.04.

`CC(=O)N1CCN(C[C@@H]2OC[C@H](NC(=O)c3cccc(F)c3)[C@H]2O)CC1`: the “% Inhibition” value is given as -4% and the Z score is given as 0.69.

`O=C1CCc2c(OCC(=O)N3CCCCC3)cccc21`: the “% Inhibition” value came to 3% and the Z score is recorded as -0.4.

Regarding `Cc1nccc(OC2Cc3ccccc3C2N)n1` (stereo not drawn), the “% Inhibition” value is given as -1% and the Z score stood at 0.07.

Take `CC(=O)Nc1ccc(C)cc1S(=O)(=O)N1CC[C@H](n2nc(-c3ccccc3)nc2C)C1`: the “% Inhibition” value was -17% and the Z score amounted to 2.23.

As to `CC[C@](C)(NCc1noc(C)n1)C(N)=O`, the “% Inhibition” value turned out to be 9% and the Z score was -1.55.

For the compound `O=C(c1ccc(Cl)c(S(=O)(=O)N2CCCCCC2)c1)N(Cc1ccco1)C1CC1`, the “% Inhibition” value is given as -15% and the Z score was 1.97.

In the case of `Cc1cc(C(=O)Cn2cnc(C#N)n2)c(C)n1CCc1ccc(Cl)cc1`, the “% Inhibition” value is on record as -9% and the Z score came out at 1.55.

On to `CN1CC[C@H](CN(C)C(=O)C(C)(C)c2cc(C(F)(F)F)ccn2)C1`, for which the “% Inhibition” value is 4% and the Z score is -0.83.

With `CN1CCC[C@@]2(CCN(C(=O)c3csc(NC4CC4)n3)C2)C1`, the “% Inhibition” value came to 1% and the Z score was -0.14.

For `CC1Cc2ccccc2N1Cc1occc1C(=O)N1CCC(C2CCN(C)CC2)C1` (stereo not drawn), the “% Inhibition” value is given as -5% and the Z score turned out to be 0.67.

`CC(C)Cn1cc(NCc2cnn(C)c2)cn1`: the “% Inhibition” value was -2% and the Z score is 0.23.

For `COCc1nc(C)cc(NCc2cc3n(n2)CCCC3)n1`, the “% Inhibition” value is on record as -9% and the Z score is 0.95.

As for `CNC(=O)[C@H]1CN(C)C[C@@H]1NC(=O)c1c(F)ccc(F)c1F`, the “% Inhibition” value was found to be 8% and the Z score was -1.04.

Regarding `CCN(CC)c1nc(N2CCOCC2)nc(N2CC(=O)N(c3ccccc3)C2=N)n1`, the “% Inhibition” value was -1% and the Z score was determined as 0.14.

As for `O=C(O)[C@@]1(CC2CC2)CCCN(c2ncccc2F)C1`, the “% Inhibition” value is reported as -15% and the Z score is listed as 1.99.

`Brc1cccc2c1OCC[C@@H]2Nc1ncnc2nc[nH]c12`: the “% Inhibition” value turned out to be 28% and the Z score is reported as -0.35.

With `CNC(=O)C[C@H](C)N(C)C(=O)c1[nH]c2c(C)ccc(C)c2c1C`, the “% Inhibition” value is -14% and the Z score came out at 1.53.

`COC[C@H](O)CNC[C@H]1CC[C@@H](c2ccccc2)O1`: the “% Inhibition” value amounted to 3% and the Z score is on record as -0.6.

As for `O=c1[nH]c(-c2ccnc(OCC(F)F)c2)nc2cc(F)c(F)cc12`, the “% Inhibition” value came out at 0% and the Z score is reported as -0.04.

With `Cc1nnsc1C(=O)N1CCN(C)Cc2ccccc21`, the “% Inhibition” value is on record as -12% and the Z score turned out to be 1.61.

As for `CN(CCC[C@H]1CCCO1)C(=O)c1ccc2c(c1)CCCC2`, the “% Inhibition” value was -1% and the Z score amounted to 0.23.

Turning to `CCn1ncc(N2CCC[C@H](CC(=O)Nc3cc(OC)cc(OC)c3)C2)cc1=O`, the “% Inhibition” value is reported as -5% and the Z score is reported as 0.57.

Turning to `CC1=NN(S(=O)(=O)c2cnn(C)c2C)[C@@](O)(C(F)(F)Cl)C1`, the “% Inhibition” value is on record as -15% and the Z score was found to be 1.71.

Turning to `O=C([C@@H]1COCC(=O)N1Cc1ccccc1)N1CCN(c2ccccc2O)CC1`, the “% Inhibition” value is -12% and the Z score was 2.27.

On to `Cc1nc(N(C)C)nc(-c2cncc(N)c2)c1C`, for which the “% Inhibition” value is -7% and the Z score amounted to 1.28.

For `CCC(=O)Nc1cc(Cl)ccc1Cl`, the “% Inhibition” value is recorded as -8% and the Z score was 1.52.

For `C[C@@H](NC(=O)N[C@@H]1COC(=O)C1)c1cc(Cl)ccc1Cl`, the “% Inhibition” value is listed as -8% and the Z score came out at 1.34.

For `CC(C)(C)CCS(=O)(=O)N1CCC[C@H](S(N)(=O)=O)C1`, the “% Inhibition” value was found to be 3% and the Z score is given as -0.21.

`Cn1cccc1C(=O)NCc1cn2c(n1)C(=O)N(Cc1ccccc1)CC2`: the “% Inhibition” value is on record as -5% and the Z score is 0.66.

For the compound `COC1(C(=O)N2CCN(C(=O)Cc3ccccc3)CC2)CCC1`, the “% Inhibition” value was -3% and the Z score came to 0.42.

In the case of `CC1(S(=O)(=O)N2CCC[C@H](c3c[nH]nn3)C2)CC1`, the “% Inhibition” value is recorded as 2% and the Z score is reported as -0.48.

For the compound `Cc1noc(C)c1CCC(=O)Nc1ccc2c(c1)N(C)S(=O)(=O)N2C`, the “% Inhibition” value is listed as 17% and the Z score is given as -2.27.

Take `CNc1nc2c(s1)[C@@H](c1ccc(Cl)c(Cl)c1)CC(O)=N2`: the “% Inhibition” value was 3% and the Z score was -0.4.

As for `COCc1nc(C)c(CNC(=O)C[C@H]2CCOC2)s1`, the “% Inhibition” value is -6% and the Z score stood at 1.21.

For the compound `CCOC[C@H]1CCCN1C(=O)c1cc(C(C)C)nn1C`, the “% Inhibition” value is 5% and the Z score is -0.7.
